Experimental data from PubChem BioAssay AID485344 (National Center for Advancing Translational Sciences (NCATS), 2010).
Hit rate of the full screen: of about 340,000 compounds, about 6,900 (2%) were called active. No stated cut-off is given here; in the data, active means inhibition above about 30%; inactive means below that, where a call was filed. The list shows a part of the results, in another mix than the full data. Where no call is shown, the source filed none.

Each molecule was assayed against D(2) dopamine receptor (Homo sapiens) (UniProt P14416) (assay: HTS Assay for Allosteric Antagonists of the Human D2 Dopamine Receptor: Primary Screen for Antagonists). Conditions: HEK293 TREx D2 cells, calcium flux, dopamine EC80; at 10 µM; stronger effect = higher value.
UniProt P14416, sequence (P14416 whole entry, looked up): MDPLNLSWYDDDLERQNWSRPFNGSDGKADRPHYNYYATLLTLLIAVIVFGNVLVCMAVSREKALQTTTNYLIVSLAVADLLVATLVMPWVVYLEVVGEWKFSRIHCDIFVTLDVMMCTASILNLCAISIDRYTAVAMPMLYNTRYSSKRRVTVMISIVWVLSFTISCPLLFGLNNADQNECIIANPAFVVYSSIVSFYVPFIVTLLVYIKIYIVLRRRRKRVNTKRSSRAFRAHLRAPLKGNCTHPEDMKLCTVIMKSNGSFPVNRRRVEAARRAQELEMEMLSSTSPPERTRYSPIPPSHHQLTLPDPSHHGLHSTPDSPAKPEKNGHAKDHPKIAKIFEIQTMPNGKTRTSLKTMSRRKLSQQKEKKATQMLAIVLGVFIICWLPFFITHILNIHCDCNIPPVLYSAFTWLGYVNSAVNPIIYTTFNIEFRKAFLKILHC
Summary of the method: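 Cells plated overnight at 30 C with tetracycline; no-wash calcium dye, 30–90 min RT; 10 s baseline; compound pinned; 180 s read; EC80 dopamine added; another 180 s read.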
Further: 0% is about no effect.

Row | SMILES | inhibition
1 | COc1ccccc1CNC(=O)CCc1c(C)c2cc3c(C)c(C)oc3cc2oc1=O | 3.07%
2 | COc1ccc(CCNC(=O)c2ccc3c(c2)N(Cc2ccc(F)cc2)C(=O)c2ccccc2S3(=O)=O)cc1OC | -6.07%
3 | COc1ccc2c(n1)Sc1nc3ccccc3nc1N2 | active: 49.4%
4 | Nc1c(N(CCC2=CCCCC2)C(=O)CCCOc2ccccc2)c(=O)[nH]c(=O)n1Cc1ccccc1 | active: 33%
5 | COCc1nnc(NC(=O)c2cc(OC)c(OC)c(OC)c2)s1 | -1.22%
6 | Cc1ccc(NC(=O)C2CCCN(S(=O)(=O)c3c(C)n[nH]c3C)C2)c(C)c1 (stereo not given) | 1.26%
7 | COc1ccc(OC)c(/C=C/c2nc3ccccc3c(=O)n2-c2ccc(F)c(Cl)c2)c1 | 2.78%
8 | COc1ccc(C(=O)/C=C/c2cn(CC(O)CN3CCc4ccccc43)c3ccccc23)cc1OC (stereo not given) | 5.68%
9 | CCOC(=O)c1[nH]cnc1C(=O)N1CCN(C(=O)OC(C)(C)C)CC1 | active: 31.5%
10 | CCC(C(=O)Nc1cc(C)ccc1C)n1c(=O)c(C(F)(F)F)nc2ccccc21 (stereo not given) | 1.62%
11 | Cc1cccc(CS(=O)(=O)c2ncc(Cl)c(C(=O)Nc3nnc(C(C)C)s3)n2)c1 | -7.91%
12 | O=C(CCn1c(=O)c2cccn2c2cccnc21)N1CCN(c2cccc(C(F)(F)F)c2)CC1 | 5.96%
13 | O=C1C2CCCN2C(=O)N1CCCCN1CCN(c2ccccc2)CC1 (stereo not given) | active: 61.9%
14 | CC(C)NC(=O)c1ccc(Cn2c(SCc3ccc(F)cc3)nc3cccnc32)cc1 | 5.62%
15 | O=C(Nc1c(C(=O)N2CCN(c3ccccc3F)CC2)oc2ccccc12)c1cccc(F)c1 | 24.5%
16 | COc1ccc(C2=CC(c3cc(Br)ccc3F)n3c(nc4ccccc43)N2)cc1 (stereo not given) | -24.4%
17 | Cc1oc(-c2ccc(C(=O)Nc3ccc(F)cc3)cc2)nc1COc1ccccc1 | 0.302%
18 | O=C(COc1ccccc1Cl)Nc1ccc(-c2nc3ccccc3s2)cc1 | -24.2%
19 | CC1CCCN(c2cc3c(cc2F)c(=O)c(S(=O)(=O)c2cccc(Cl)c2)cn3Cc2ccccc2)C1 (stereo not given) | 13.5%
20 | C[C@H](NC(=O)c1ccccc1)C(=O)N1CCN(c2ccccc2)CC1 | active: 30.4%

Row | SMILES | inhibition
21 | CCOC(=O)c1c(NC(=O)c2cc(-c3ccc(Br)cc3)on2)sc(C(C)=O)c1C | -5.85%
22 | CCOC(=O)N1CCN(Cc2nc3cc(NC(C)=O)ccc3n2C)CC1 | active: 31.3%
23 | COc1ccc(NC(=O)c2cc3ccccc3o2)c(OC)c1 | -1.78%
24 | O=C(c1ccc(F)cc1)c1cn(Cc2ccccc2)c2cc3c(cc2c1=O)OCO3 | 20.7%
25 | COc1ccccc1CNc1nc2c(S(=O)(=O)c3ccc(C)c(C)c3)nnn2c2ccc(Cl)cc12 | 4.34%
26 | O=C(Cn1c(=O)oc2cc(S(=O)(=O)NCc3ccccc3)ccc21)Nc1cccc(F)c1 | -5.67%
27 | O=C(NC1CCSC1=O)c1cccc(C(=O)NC2CCSC2=O)c1 (stereo not given) | active: 42%
28 | COc1ccc2ccccc2c1CNC(C)CCc1ccccc1 (stereo not given) | active: 30.1%
29 | COc1ccc(NC(=O)C(NS(=O)(=O)c2cccc3nsnc23)C(C)C)cc1 (stereo not given) | -1.05%
30 | COc1ccccc1C(=O)Nc1ccc2nc(SCCOc3ccccc3C)sc2c1 | -7.45%
31 | Cc1ncc(CN2CCC(CO)(CCc3ccccc3)CC2)s1 | active: 81.1%
32 | CC(C)c1ccc(N2C(=O)CSC23C(=O)N(Cc2cccc(F)c2)c2ccccc23)cc1 (stereo not given) | 6.97%
33 | CN(C)CC(O)COc1cccc(OCC(O)CN(C)C)c1 (stereo not given) | active: 54.9%
34 | COc1ccc(OC)c(CNC(=O)C2CCCN(c3ncnc4onc(-c5ccc(F)cc5)c34)C2)c1 (stereo not given) | -5.24%
35 | Fc1ccc(NCc2nnc3n2CCCCC3)cc1Cl | -12.7%
36 | CCC(C(=O)NCc1cc(OC)ccc1OC)n1nc(C)c2sc3ccccc3c2c1=O (stereo not given) | 0.766%
37 | O=C1CCSc2ccc(Cl)cc2N1Cc1cccc(Cl)c1 | active: 33.3%
38 | COc1cccc(C(=O)N2CCC(C(=O)Nc3cccc(Cl)c3)CC2)c1 | 26.4%
39 | Cc1cccc(CNC(=O)c2ccc(N3Cc4ccccc4Oc4ncccc43)s2)c1 | 2.99%
40 | CN(C)c1cccc(C(=O)N2CCC(c3c[nH]c4ccccc34)(c3c[nH]c4ccccc34)CC2)c1 | 4.9%

Row | SMILES | inhibition
41 | O=C(COCc1cc(-c2cccs2)on1)N1CCN(c2ccccc2)CC1 | 2.18%
42 | COc1cc(C(=O)Nc2ccc(NC(=O)c3ccc(C(C)(C)C)cc3)cc2)cc(OC)c1OC | 2.39%
43 | O=C(CCc1ccccc1)NNC(=O)Nc1ccccc1 | active: 43.6%
44 | CC(=O)c1ccc(NC(=S)N2CCC(Cc3ccccc3)CC2)cc1 | active: 32.5%
45 | COc1ccc2ccccc2c1CN1CCN(C(=O)c2ccco2)CC1 | active: 88.5%
46 | O=C1c2oc3ccccc3c(=O)c2C(c2cccc(O)c2)N1c1nncs1 (stereo not given) | -11.5%
47 | O=C(CC1SC(N2CCOCC2)=NC1=O)Nc1ccc(Cl)cc1 (stereo not given) | active: 58.2%
48 | CCOC(=O)c1c(-c2ccc(C)cc2)csc1NC(=O)c1cc(=O)c2cc(C)ccc2o1 | 2.06%
49 | O=C(Cn1c(=O)nc(-c2ccccc2)c2ccccc21)NCCc1ccccc1 | -8.47%
50 | CC(=O)c1ccc(NC(=O)CN2C(=O)CN(C)C(=O)c3ccccc32)cc1 | 7.23%
51 | COc1cc(Nc2nc(SCc3ccc(Cl)cc3)nc3ccccc23)cc(OC)c1 | -2.66%
52 | COc1ccc(-c2oc3ncn4nc(COc5cccc(C)c5C)nc4c3c2-c2ccc(OC)cc2)cc1 | 9.76%
53 | COc1cccc(CNC(=O)C2=C(C)C(=O)OC23CCN(C(C)=O)CC3)c1OC | -11.6%
54 | COc1cccc(C(=O)Nc2nc3nc(-c4ccccc4)cc(=O)n3[nH]2)c1 | 8.02%
55 | Nc1ccc(C(=O)N2CCN(S(=O)(=O)c3ccc(Br)cc3)CC2)cc1[N+](=O)[O-] | active: 34.7%
56 | COc1ccc(NC(=O)C2CCN(S(=O)(=O)c3ccc4c(c3)CCCC(=O)N4)CC2)cc1OC | 5.9%
57 | O=C(Nc1ccccc1C(=O)OCc1cc(=O)n2c3c(sc2n1)CCCC3)c1ccc(F)cc1 | 11%
58 | COc1ccc(-c2nc(SCC(=O)Nc3ccc4c(c3)OCCO4)c(-c3ccc(F)cc3)[nH]2)cc1 | 16.3%
59 | Cc1cccc(C(C)C)c1NC(=O)Cn1c(=O)oc2cc(S(=O)(=O)N3CCCC3)ccc21 | 4.75%
60 | CCc1ccc2nc(N(CCN(CC)CC)C(=O)c3cccs3)sc2c1 | -0.852%
